From a collection of fitness landscapes (doi:10.1016/j.celrep.2020.107928)
Whole data set: some 81,000 sequences, median “one-hybrid fitness for binding NBS DNA” near -0.1, cut for the highest 2% near 0.36. Some of the results follow.

B1: Caulobacter ParB omega fusion; a variant is named by its letters at X, in order, B8GW30 (parent)
chain: MESVVVGEPGMSEGRRGLGRGLSALLGEVDAAPAQAPGEQLGGSREAPIEILQRNPDQPRRTFREEDLEDLSNSIREKGVLQPILVRPSPDTAGEYQIVAGERAWRAAQRAGLKTVPIMVRELDDLAVLEIGIIENVQRADLNVLEEALSYKVLMEKFERTQENIAQTIGKSXSHVANXMRLLXLPDEVQSYLVSGELTAXHARAIAAAADPVALAKQIIEGGLSVRETEALARKAPNLSAGKSKGGRPPRVKDTDTQALESDLSSVLGLDVSIDHRGSTGTLTITYATLEQLDDLCNRLTRGI

Variants of: B1
Assay: one-hybrid fitness for binding NBS DNA (the Noc-binding site; scaled: cognate 1, non-cognate 0); higher = stronger binding
Details: with NBS DNA site
Outline: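 Pre- and post-selection plasmids were Illumina-sequenced, three replicate libraries were pooled, and any variant with under 10 reads was removed. The libraries were Caulobacter ParB with four specificity codons randomised, selected in E. coli USO through a HIS3 reporter whose site is 19 bp from the promoter. Cells grew 48 hours at 37°C on M9 without histidine, with 0.1 mM IPTG and 5 mM 3-AT. Fitness is the log change in variant-to-wild-type read ratio, rescaled against cognate and non-cognate.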

| Variant | one-hybrid fitness for binding NBS DNA |
| --- | --- |
| SPHF | ≤ 0.2 |
| QGAV | ≤ 0.2 |
| YNHG | ≤ 0.2 |
| GWGS | ≤ 0.2 |
| YTDL | ≤ 0.2 |
| SNPR | ≤ 0.2 |
| QCEY | ≤ 0.2 |
| ALFK | ≤ 0.2 |
| KDAE | ≤ 0.2 |
| MCPV | ≤ 0.2 |
| TVTT | ≤ 0.2 |
| QHFN | ≤ 0.2 |
| GYSP | ≤ 0.2 |
| VSKE | ≤ 0.2 |
| VITC | ≤ 0.2 |
| RADT | ≤ 0.2 |
| YSAD | ≤ 0.2 |
| NCSS | ≤ 0.2 |
| VGPL | ≤ 0.2 |
| RSNE | ≤ 0.2 |
| TTQG | ≤ 0.2 |
| VPKS | ≤ 0.2 |
| AATV | ≤ 0.2 |
| PMVA | ≤ 0.2 |
| HNSQ | ≤ 0.2 |
| CNSV | ≤ 0.2 |

| Variant | one-hybrid fitness for binding NBS DNA |
| --- | --- |
| PNSL | ≤ 0.2 |
| LLST | ≤ 0.2 |
| TLNR | ≤ 0.2 |
| AAWC | ≤ 0.2 |
| PTGA | ≤ 0.2 |
| DNKT | ≤ 0.2 |
| QQEY | ≤ 0.2 |
| CRNV | ≤ 0.2 |
| NAWG | ≤ 0.2 |
| EYWD | ≤ 0.2 |
| GQIL | ≤ 0.2 |
| FKNS | ≤ 0.2 |
| CQSN | ≤ 0.2 |
| SCIT | ≤ 0.2 |
| MTMT | ≤ 0.2 |
| DDSS | ≤ 0.2 |
| RVVS | 0.261 |
| CTGS | ≤ 0.2 |
| TTTT | ≤ 0.2 |
| LTKR | 0.274 |
| RCHS | 0.577 |
| DKIR | ≤ 0.2 |
| GLYT | ≤ 0.2 |
| QLAK | ≤ 0.2 |
| GRMG | ≤ 0.2 |
| GGDY | ≤ 0.2 |

| Variant | one-hybrid fitness for binding NBS DNA |
| --- | --- |
| SGYC | ≤ 0.2 |
| LRGN | ≤ 0.2 |
| RKFT | 0.437 |
| LINC | ≤ 0.2 |
| QQYS | 0.406 |
| HGVD | ≤ 0.2 |
| RCVH | ≤ 0.2 |
| TCTG | ≤ 0.2 |
| HKEK | ≤ 0.2 |
| NMNI | ≤ 0.2 |
| INLW | ≤ 0.2 |
| KIVS | ≤ 0.2 |
| YTAV | ≤ 0.2 |
| FVHS | ≤ 0.2 |
| RALV | ≤ 0.2 |
| RRHF | 0.207 |
| PRNT | ≤ 0.2 |
| NQRA | ≤ 0.2 |
| APPH | ≤ 0.2 |
| AVFW | ≤ 0.2 |
| LQAG | ≤ 0.2 |
| DGMS | ≤ 0.2 |
| WWMC | ≤ 0.2 |
| MNYN | ≤ 0.2 |
| TDEC | ≤ 0.2 |
| RYMR | 0.357 |

| Variant | one-hybrid fitness for binding NBS DNA |
| --- | --- |
| YLIN | ≤ 0.2 |
| PICR | ≤ 0.2 |
| RVHR | 0.484 |
| IHQG | ≤ 0.2 |
| YLPT | ≤ 0.2 |
| NPNG | ≤ 0.2 |
| PAMF | ≤ 0.2 |
| RFMA | ≤ 0.2 |
| HIAG | ≤ 0.2 |
| QFTH | ≤ 0.2 |
| VHPA | ≤ 0.2 |
| QWPG | ≤ 0.2 |
| GSSG | ≤ 0.2 |
| YFAT | ≤ 0.2 |
| GIKT | ≤ 0.2 |
| CVTH | ≤ 0.2 |
| KTAA | ≤ 0.2 |
| RTKV | 0.33 |
| MTNM | ≤ 0.2 |
| SLLI | ≤ 0.2 |
| EHRS | ≤ 0.2 |
| TQSI | ≤ 0.2 |
| TKYT | ≤ 0.2 |
| YSAF | ≤ 0.2 |
| VTPA | ≤ 0.2 |
| RHAS | 0.433 |

| Variant | one-hybrid fitness for binding NBS DNA |
| --- | --- |
| APLM | ≤ 0.2 |
| TCLG | ≤ 0.2 |
| MAGV | ≤ 0.2 |
| KNYS | ≤ 0.2 |
| QDFW | ≤ 0.2 |
| WWTG | ≤ 0.2 |
| KRTW | ≤ 0.2 |
| ILMY | ≤ 0.2 |
| CRIT | ≤ 0.2 |
| RWKR | 0.372 |
| TAHR | ≤ 0.2 |
| LHSP | ≤ 0.2 |
| DWWS | ≤ 0.2 |
| ALAL | ≤ 0.2 |
| AMPL | ≤ 0.2 |
| RARV | ≤ 0.2 |
| ENCG | ≤ 0.2 |
| GQAR | ≤ 0.2 |
| RVKP | ≤ 0.2 |
| DTSY | ≤ 0.2 |
| YPMG | ≤ 0.2 |
| RLWY | ≤ 0.2 |
| HPQD | ≤ 0.2 |
| VHTM | ≤ 0.2 |
| DAHI | ≤ 0.2 |
| AGPK | ≤ 0.2 |

| Variant | one-hybrid fitness for binding NBS DNA |
| --- | --- |
| TTMD | ≤ 0.2 |
| QKCH | ≤ 0.2 |
| KPSL | ≤ 0.2 |
| TEHF | ≤ 0.2 |
| PKIC | ≤ 0.2 |
| DAVW | ≤ 0.2 |
| GATP | ≤ 0.2 |
| RDAG | ≤ 0.2 |
| KHWK | ≤ 0.2 |
| IVPQ | ≤ 0.2 |
| MCYC | ≤ 0.2 |
| ANMS | ≤ 0.2 |
| ACFT | ≤ 0.2 |
| AKLT | ≤ 0.2 |
| ACWD | ≤ 0.2 |
| LTAI | ≤ 0.2 |
| LVWG | ≤ 0.2 |
| REQC | ≤ 0.2 |
| HQGT | ≤ 0.2 |
| PKRA | ≤ 0.2 |
| RHFE | ≤ 0.2 |
| TQEG | ≤ 0.2 |
| KKDV | ≤ 0.2 |
